Data reported in paper PMC4336329 (PLoS ONE, 2015).
In all, about 310,000 compounds went through this assay and about 2,200 (0.71%) showed an effect of 50% or more. Effects have a minus sign here. Some of the results follow.

target: human ether-à-go-go-related gene (hERG) potassium channel (human, UniProt Q12809); assay: primary screen, population patch clamp on CHO cells stably expressing hERG
Sequence (Q12809 whole entry, looked up): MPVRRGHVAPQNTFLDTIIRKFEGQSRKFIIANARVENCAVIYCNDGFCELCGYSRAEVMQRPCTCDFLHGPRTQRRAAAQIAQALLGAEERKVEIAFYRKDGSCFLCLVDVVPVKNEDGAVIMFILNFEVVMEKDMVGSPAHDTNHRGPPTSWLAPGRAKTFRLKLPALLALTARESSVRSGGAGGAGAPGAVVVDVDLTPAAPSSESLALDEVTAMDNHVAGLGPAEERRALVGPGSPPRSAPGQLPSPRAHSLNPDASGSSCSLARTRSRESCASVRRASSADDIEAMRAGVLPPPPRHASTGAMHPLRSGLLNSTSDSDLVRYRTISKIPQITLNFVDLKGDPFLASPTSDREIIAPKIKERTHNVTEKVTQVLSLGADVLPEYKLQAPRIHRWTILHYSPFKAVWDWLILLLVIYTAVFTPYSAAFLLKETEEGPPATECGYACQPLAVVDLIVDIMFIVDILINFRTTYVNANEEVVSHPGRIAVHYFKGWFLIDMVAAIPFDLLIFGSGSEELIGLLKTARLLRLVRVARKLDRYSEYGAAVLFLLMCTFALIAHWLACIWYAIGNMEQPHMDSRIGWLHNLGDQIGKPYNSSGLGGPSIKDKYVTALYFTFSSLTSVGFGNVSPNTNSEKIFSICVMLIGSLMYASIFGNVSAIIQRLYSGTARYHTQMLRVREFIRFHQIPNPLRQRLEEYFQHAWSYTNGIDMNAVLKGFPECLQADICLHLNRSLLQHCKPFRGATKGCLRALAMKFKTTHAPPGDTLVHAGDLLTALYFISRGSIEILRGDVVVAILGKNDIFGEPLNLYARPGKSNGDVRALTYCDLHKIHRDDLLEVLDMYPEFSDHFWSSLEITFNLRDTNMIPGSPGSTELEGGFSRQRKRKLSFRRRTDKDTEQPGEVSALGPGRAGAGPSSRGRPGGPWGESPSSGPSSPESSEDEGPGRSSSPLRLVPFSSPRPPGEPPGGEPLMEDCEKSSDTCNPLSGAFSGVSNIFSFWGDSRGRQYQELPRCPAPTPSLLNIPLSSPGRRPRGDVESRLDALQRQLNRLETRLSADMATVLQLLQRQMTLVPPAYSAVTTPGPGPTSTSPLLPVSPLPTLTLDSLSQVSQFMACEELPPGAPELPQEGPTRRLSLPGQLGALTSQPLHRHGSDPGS

Compound	hERG current change (%, negative = inhibition) at 1uM [%]
CC(=O)Nc1ccc(C(=O)OCCC(C)C)cc1	6.1
COCc1n[nH]c(=S)n1-c1cccc2ccccc12	14.6
Cc1ccc2nc(Nc3ncc4c(n3)CC(C)(C)CC4=O)nc(C)c2c1	11.2
COC(=O)C1=C(c2ccccc2)C[C@@H]2CC[C@H]1N2C(=O)NC(C)C	11.4
CO/N=C/C1CCN(c2ncc(C(F)(F)F)cc2Cl)C1=O (centres unmarked)	8.53
O=C(/C=C/c1ccccc1)NNC(=O)c1cccc(Cl)c1	3.65
CCc1cccc(CC)c1NC(=O)COC(=O)CC1c2ccccc2CCN1S(=O)(=O)c1ccc(F)cc1 (centres unmarked)	5.93
Cc1ccc(S(=O)(=O)Nc2ccc(-c3nc4ccc(C)cc4s3)cc2)cc1	9.47
O=C(CSc1nc2sccc2c(=O)[nH]1)N1CCN(c2ccccc2)CC1	13.4
CC(=O)CCc1oc2c([N+](=O)[O-])cccc2c1-c1ccc(C)o1	15.7
S=c1[nH]nc(Cn2cnc3ccccc32)n1-c1ccccc1	16.4
COc1ccc(-c2cc(C(F)(F)F)nc(-n3cc(Cl)cn3)n2)cc1	5.11
O=C(O)CCCC(=O)N1N=C(c2ccccc2)CC1c1ccc2c(c1)OCO2 (centres unmarked)	21.1
CC(=NCCCNC1CCCCC1)C1=C(O)CC(C)(C)CC1=O	11.9
CCOc1ccc(Cl)cc1CNCCNCC(C)O.Cl (centres unmarked)	5.22
CN1CCSc2ccc(C(=O)NCc3cccc(F)c3)cc21	17.1
CSc1ccccc1OCc1cc(C(=O)N2CCN(C3CCCC3)C(=O)C2)no1	-13.9
Cc1ccc(O)c(N=Nc2ccccc2)n1	1.91
COc1ccc(-c2nsc3c(SCc4ccccc4)ncnc23)cc1	4.45
COc1ccc(CCN2CN(S(=O)(=O)c3ccc(C)cc3)c3nc4ccccc4nc32)cc1OC	7.7
COC(=O)c1sccc1NC(=O)c1ccc2c(c1)OCO2	-0.869
Cc1ccc(S(=O)(=O)N2CCN(c3ncnc4scc(-c5ccc(F)cc5)c34)CC2)cc1	13.8

Compound	hERG current change (%, negative = inhibition) at 1uM [%]
CCOC(=O)c1nc(Nc2ccc(C)cc2)c2ccccc2n1	-4.71
CSC(=O)CC(=O)NC(=O)c1ccccc1	0.864
Cc1nn(CC(=O)N2N=C(C(F)F)CC2(O)C(F)F)c(C)c1[N+](=O)[O-] (centres unmarked)	9.35
Cc1ccccc1-n1ncc2c1CC(C)(C)CC2NC(=O)C1=CC(=O)CC(C)(C)O1 (centres unmarked)	10.3
CCOC(=O)N1CCN(C2CCCN(C(=O)c3ccccc3SC)C2)CC1 (centres unmarked)	15.3
CCCNc1nc2c(c(=O)[nH]c(=O)n2C)n1CCOc1ccccc1	-27.5
COc1ccccc1OC(=O)c1ccc(C)c(S(=O)(=O)N2CCOCC2)c1	2.71
CCCCN(CCCC)NC(=O)c1ccccc1	12.4
O=C(O)c1ccc(N2C(=O)CC(N3CCN(c4cccc(Cl)c4)CC3)C2=O)cc1 (centres unmarked)	10.7
Nc1cccc(O)c1	14.8
CCC/C=N/NC(=O)c1ccccc1O	17.2
COc1ccc(CCN(C)C(=O)c2ccc(C)c(S(=O)(=O)N3CCCCC3)c2)cc1OC	4.48
CCn1c(C(=O)N2CCCC(C(=O)O)C2)cc2sccc21 (centres unmarked)	8.81
COC(=O)Cc1c(C)nc2nc(-c3ccco3)[nH]n2c1=O	9.37
COC(=O)c1c(NC(=O)COC(=O)[C@@H](NS(=O)(=O)c2cccc(Cl)c2)C(C)C)sc2c1CCC2	12.7
COc1ccc(N=Nc2cnc(C)nc2-c2ccccc2)cc1	12.4
O=C(NCCc1ccccc1)C1CCN(S(=O)(=O)c2ccc(-n3cnnn3)cc2)CC1	-20.9
Cc1ccc(CN2CCCN(Cc3ccc(F)cc3Cl)S2(=O)=O)cc1	11.3
O=C(Nc1nc2ccccc2n1CCN1CCCCC1)c1ccc(Cl)cc1	-5.1
O=C(CCN1CCN(c2ccccc2F)CC1)Nc1ccccc1Cl	7.43
CCN(CCNC(=O)CS(=O)(=O)Cc1nc(-c2cccc(OC)c2)oc1C)c1ccccc1	13.5
COc1c(O)cccc1[C@@H](O)C1CCN(CCc2ccc(F)cc2)CC1	-25.3
